Experimental data as given in PMC4336329 (PLoS ONE, 2015).
The whole screen tested about 310,000 compounds, of which about 14,000 (4.5%) showed an effect of 50% or more. Effects have a minus sign here. This is one part of the list.

molecular target: human ether-à-go-go-related gene (hERG) potassium channel (human, UniProt Q12809); assay: primary screen, population patch clamp on CHO cells stably expressing hERG
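Note: peak tail current of the secondary pulse compared with the same well before compound.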

Sequence of human ether-à-go-go-related gene (hERG) potassium channel (Q12809 whole entry, looked up): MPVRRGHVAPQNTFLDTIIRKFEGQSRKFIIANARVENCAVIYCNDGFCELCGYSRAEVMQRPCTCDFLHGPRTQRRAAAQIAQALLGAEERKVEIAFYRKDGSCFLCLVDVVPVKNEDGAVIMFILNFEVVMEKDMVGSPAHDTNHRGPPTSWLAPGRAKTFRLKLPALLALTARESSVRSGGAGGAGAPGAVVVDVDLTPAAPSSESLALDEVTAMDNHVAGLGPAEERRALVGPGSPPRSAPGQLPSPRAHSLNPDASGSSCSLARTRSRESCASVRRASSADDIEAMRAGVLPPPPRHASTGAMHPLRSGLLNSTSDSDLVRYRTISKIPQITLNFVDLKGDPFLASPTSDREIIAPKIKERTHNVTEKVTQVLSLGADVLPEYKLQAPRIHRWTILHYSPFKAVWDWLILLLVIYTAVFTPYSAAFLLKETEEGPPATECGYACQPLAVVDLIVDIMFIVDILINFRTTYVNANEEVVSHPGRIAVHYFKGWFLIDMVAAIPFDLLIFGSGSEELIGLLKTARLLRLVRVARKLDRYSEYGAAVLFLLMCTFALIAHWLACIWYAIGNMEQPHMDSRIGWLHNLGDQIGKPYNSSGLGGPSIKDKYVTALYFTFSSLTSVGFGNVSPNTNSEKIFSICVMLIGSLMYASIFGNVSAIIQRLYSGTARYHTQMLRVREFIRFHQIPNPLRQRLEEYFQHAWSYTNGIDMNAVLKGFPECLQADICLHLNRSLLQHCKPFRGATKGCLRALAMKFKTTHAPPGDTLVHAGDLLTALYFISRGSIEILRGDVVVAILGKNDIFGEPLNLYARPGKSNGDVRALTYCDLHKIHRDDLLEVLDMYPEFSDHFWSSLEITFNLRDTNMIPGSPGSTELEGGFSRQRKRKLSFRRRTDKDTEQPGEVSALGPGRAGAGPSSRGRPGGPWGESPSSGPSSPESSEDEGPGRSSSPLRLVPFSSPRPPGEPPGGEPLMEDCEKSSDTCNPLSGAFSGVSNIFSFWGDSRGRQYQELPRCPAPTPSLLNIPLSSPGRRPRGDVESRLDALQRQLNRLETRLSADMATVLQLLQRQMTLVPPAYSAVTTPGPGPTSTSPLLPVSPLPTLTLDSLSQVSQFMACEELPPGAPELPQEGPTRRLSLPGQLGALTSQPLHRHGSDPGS

In order of rising “hERG current change (%, negative = inhibition) at 10uM” value:
1. COc1ccc(C(=O)NC(C)c2ccc(-n3ccnc3)cc2)cc1[N+](=O)[O-] (centres unmarked)  -77.9%
2. CCc1ccc(CN2CCCC(CNC(=O)c3cc(OC)cc(OC)c3)C2)cc1 (centres unmarked)  -69.9%
3. Cc1ccc(NC(=O)NCC2CCN(Cc3cccc(Cl)c3)CC2)c(Cl)c1  -59.8%
4. Cc1cc(C)cc(NC(=O)CN2CCN(CCN=CC3=C(O)CC(C)(C)CC3=O)CC2)c1  -49.9%
5. CCN(CC)CC(=O)Nc1ccc2c(c1)Nc1ccccc1CC2.Cl  -47.3%
6. Cc1cc(=O)n2nc(N3CCCC(C(=O)NCCc4ccc(Cl)cc4)C3)sc2n1 (centres unmarked)  -46.3%
7. c1ccc2c(c1)OCC(c1nnc3n1-c1ccccc1SC3)O2 (centres unmarked)  -34.2%
8. CCc1ccc(OCC(=O)N/N=C2\CC(=O)c3ccccc32)cc1  -34%
9. COc1ccc(-c2cc3nc(C)cc(NCCO)n3n2)cc1  -33.6%
10. C=CCc1ccccc1OCC(O)CN(CC)CC.Cl (centres unmarked)  -30.5%
11. COc1cccc(CNC(=O)CSc2nnc3c(n2)[nH]c2ccc(F)cc23)c1  -30.3%
12. O=C(NC(=S)Nc1ccccc1N1CCCC1)c1ccc(-c2cccc([N+](=O)[O-])c2)o1  -26.7%
13. O=[N+]([O-])c1ccc2c(c1)C(N1CCOCC1)/C(=C/COc1ccc(F)cc1)O2 (centres unmarked)  -26%
14. O=S(=O)(c1cc(F)ccc1F)N1CCC2(CC1)OCCN2S(=O)(=O)c1ccccc1  -23.7%
15. Cc1ccc(N=C2NC(=O)/C(=C/c3cccnc3)S2)c(C)c1  -22.8%
16. Cc1cc(Br)ccc1OCCN1CC(C)OC(C)C1.O=C(O)C(=O)O (centres unmarked)  -17.8%
17. COc1cccc(NC=C2C(=O)OC3(CCCCC3)OC2=O)c1  -17.6%
18. Cn1cc(C(=O)N2CCN(c3cccc(Cl)c3)CC2)c(=O)c2cc(S(=O)(=O)N3CCOCC3)ccc21  -17.6%
19. CC(=O)c1ccc(OCC(=O)Nc2cccc(S(=O)(=O)N3CCCC3)c2)cc1  -13.3%
20. COc1ccc(-n2c(CSc3nc(C)cc(C)n3)nnc2SCC(=O)Nc2nccs2)cc1  -13.2%
21. COc1cccc(CNC(=O)CN2C(=O)CC(c3ccccc3)=Nc3ccccc32)c1  -13%
22. O=C(CSCc1cccc(Br)c1)N/N=C/c1ccc2c(c1)OCO2  -12.6%
23. O=C(NCc1ccc(N2CCCC2=O)cc1)Nc1cccc(Cl)c1  -12.1%
24. O=C(N/N=C/c1ccc(O)c(O)c1)NC12CC3CC(CC(C3)C1)C2  -11.8%
25. C=C1CCN([C@@H](CC(C)C)C(=O)Nc2ccc(OC)cc2)S(=O)(=O)c2ccccc21  -10.7%
26. COc1ccc(NC(=O)NCC(C)CSc2ccc(C)cc2)c(OC)c1 (centres unmarked)  -9.87%
27. O=C(CNC(=O)c1ccccc1Cl)Nc1ccc(Br)cc1C(=O)c1ccccc1  -9.65%
28. C[C@@H]1C=C[C@](Cc2ccccc2)(C(=O)NCCc2c[nH]c3ccccc23)N1C(=O)c1ccccc1  -7.94%
29. O=C(COc1ccccc1)Nc1cccc2c1CCCC2  -7.72%
30. O=C(C1CCN(S(=O)(=O)N2CCOCC2)CC1)N1CCN(c2ccccc2)CC1  -7.42%
31. Cl.Nc1csnc1C(=O)O  -7.4%
32. Cc1onc(-c2ccccc2Cl)c1C(=O)OCC(=O)Nc1ccc2c(c1)OCO2  -6.65%
33. CCOC(=O)Cn1c(=NC(=O)C(C)(C)C)sc2cc([N+](=O)[O-])ccc21  -6.47%
34. Cl.Oc1ccc(Cl)cc1CNCc1cccc2ccccc12  -6.46%
35. COCCN1Cc2cccc(C(=O)Nc3ccc(S(=O)(=O)N4CCCCC4)cc3)c2C1=O  -4.49%
36. Cc1ccccc1-n1cc(CNC(=O)CC2C(=O)NCCN2C/C=C/c2ccccc2)cn1 (centres unmarked)  -3.76%
37. CC(C)(C)OC(=O)COc1cc(F)ccc1[N+](=O)[O-]  -3.54%
38. CCc1nnc(NC(=O)[C@@H](NC(=O)c2cccc(S(=O)(=O)N(CC)CC)c2)C(C)C)s1  -3.11%
39. Cc1ccc([N+](=O)[O-])cc1NC1OC(CO)C(O)C1O (centres unmarked)  -2.95%
40. CCN1CCN(C(c2cc3cc4c(cc3[nH]c2=O)OCO4)c2nnnn2C(C)(C)CC)CC1 (centres unmarked)  -2.89%
41. CC(NC(=O)c1ccccc1NS(C)(=O)=O)c1ccccc1 (centres unmarked)  -2.88%
42. CCN1CCCC1CNC(=O)c1ccc(N2CCCC2=O)cc1 (centres unmarked)  -2.7%
43. CCOc1ccc(OCC(=O)NCc2n[nH]c(=O)c3ccccc23)cc1  -2.6%
44. CCC(CC)N1CCN(C(=O)c2cccc(Cl)c2)CC1.O=C(O)C(=O)O  -2.55%
45. CC(=O)c1ccc(NC(=O)NC2CCCc3ccccc32)cc1 (centres unmarked)  -2.21%
46. Cc1ccc(C)c(NS(=O)(=O)c2c(C)nc3sccn3c2=O)c1  -1.53%
47. CSc1ccc(Cl)c(C(=O)OCC(=O)N2CCOCC2)c1  -1.27%
48. COc1ccc(S(=O)(=O)N2CCC(C(=O)Nc3nnc(CCN4CCCCC4)s3)CC2)cc1  -1.1%
49. CCCCn1c(N)c(N(CCC(C)C)C(=O)C2CC(=O)N(c3cccc(SC)c3)C2)c(=O)[nH]c1=O (centres unmarked)  -0.933%
50. CCOC(=O)COc1ccc(-c2nnc(-c3ccccc3)o2)cc1  -0.732%
51. CC(C)CNC(=O)COc1cccc(C(=O)NCc2ccccc2)c1  -0.402%
52. CCOC(=O)N1CCN(C(=O)c2ccc(N(Cc3ccccc3Cl)S(C)(=O)=O)cc2)CC1  -0.267%
53. CCCc1c(O)nc(SCCN(CCC)CCC)[nH]c1=O.Cl  0.0733%
54. CCOCCCNC(=O)/C(C#N)=C/c1ccc(C)o1  0.165%
55. CN1CCN(S(=O)(=O)c2ccc(SCCOc3ccc(Cl)cc3)nc2)CC1  0.4%
56. Cc1ccc(-c2nnc(CSc3nnc(COc4cccc5ccccc45)n3-c3ccccc3)o2)cc1  1.54%
57. Cc1ccc2nsnc2c1S(=O)(=O)N1CCOCC1  1.56%
58. CN(C)CCOC(=O)C1(c2ccccc2)CCCC1.Cl  1.62%
59. Cc1noc2ncc(C(=O)c3cc(F)ccc3O)cc12  2.42%
60. CCOc1ccc(-c2noc(COC)n2)cc1OC  2.88%
61. CSCCC(NC(N)=O)C(=O)N(C)CC(=O)Nc1cc(C)ccc1C (centres unmarked)  3.1%
62. Cc1c(NC(=O)CSCc2ccc(Cl)cc2Cl)cccc1C(=O)O  4.41%
63. CN(C)S(=O)(=O)N1CCN(C(=O)N2CCOCC2)CC1  6.25%
64. CCN1CCc2c(sc(NC(=O)c3ccc4ccccc4c3)c2C(N)=O)C1.Cl  7.59%
65. Cc1cccc(C)c1Nc1ncnc(N)c1[N+](=O)[O-]  7.83%
66. CCN(CC)S(=O)(=O)c1ccc(C(C)NC(=O)Cc2c[nH]c3ccccc23)cc1 (centres unmarked)  9.07%
67. CCCCn1cnc2c1c(=O)n(C)c(=O)n2C  9.21%
68. C=CCNC(=O)C1CC(=O)N(c2ccc(OCC(=O)Nc3c(C)cccc3C)cc2)C1 (centres unmarked)  9.63%
69. COC(=O)c1ccccc1N(Cc1ccccc1)S(C)(=O)=O  9.77%
70. CN1C(=O)N2CN(C3CCCCC3)CN3C(=O)N(C)C1C23 (centres unmarked)  9.88%
71. CSc1nnc(SCC(=O)Nc2ccc3[nH]c(=O)[nH]c3c2)s1  10%
72. CS(=O)(=O)N(CC(=O)O)c1cc(Cl)cc(Cl)c1  10.3%
73. C/C(=N\OC(=O)c1ccc(F)cc1)c1sc(-c2ccccc2)nc1C  10.7%
74. COC(=O)C(C(=O)OC)c1ccc(NC(=O)c2cccc(Cl)c2)cc1  11.3%
75. Cc1cccc(-n2ncc3c(NCc4ccccc4)ncnc32)c1  12%
76. CC(NC(=S)Nc1ccc(F)cc1)c1ccccc1 (centres unmarked)  12.3%
77. COc1ccc(OC)c(/C=N\Nc2nccs2)c1  13.2%
78. Cc1ccc(NC(=O)CSc2nc(N)c3c4c(sc3n2)CSC(C)(C)C4)cc1  14.2%
79. O=C(O)c1cccnc1SCc1ccc([N+](=O)[O-])cc1  15.8%
80. COC(=O)c1cc(C(=O)Nc2cc(C)on2)cc([N+](=O)[O-])c1  16%
81. COc1cc(OC)cc(C(=O)NCc2n[nH]c(=S)n2-c2ccccc2)c1  17.5%
82. CC(=O)Nc1ccc(SCC(=O)Nc2sccc2C#N)cc1  21.2%
83. CCCc1c(C(=O)N/N=C(\C)CCc2ccc(OC)cc2)nnn1-c1nonc1N  21.9%
84. CC1=NOC(=O)/C1=C\c1ccc(-c2ccc(Br)cc2C(=O)O)o1  24.7%
85. O=C(NCc1ccccn1)Nc1ccccc1  26.6%
86. CCOc1ccc(C2C(C#N)=C(N)SC(N)=C2C#N)c(OCC)c1  28.6%
87. CC1NCCC2(O)CCCCC12 (centres unmarked)  29.4%
88. CCN(C(=O)CSc1nnc2ccccn12)C1CCS(=O)(=O)C1 (centres unmarked)  29.7%
89. Cc1ccc(NC(=S)NCc2ccc3c(c2)cc(C)n3C)c(C)c1  31.3%
